According to PubChem BioAssay AID1508623 (National Center for Advancing Translational Sciences (NCATS), 2021):
Among all 48,000 compounds or so, about 450 (0.94%) were called active. The shares of active, inactive and inconclusive entries below differ from those in the screen. The call rests on the fitted dose curve; in most records, active means well fitted inhibition curve with a large enough effect; inconclusive means small, poorly fitted or top-dose-only effect; inactive means no such curve, though single readings can be large or run the other way. A potency beside an inconclusive call is a rough fit, not a confirmed value.

Assay: Primary qHTS for Identification of Small Molecule Inhibitors of Huntingtin Promoter Activity; further: nearly all actives have a fitted effect of over 50% in size
Conditions: HEK293 HTT promoter firefly luciferase reporter (activity 0% = vehicle and -100% = no light), 24 h; series mostly up to 57.5 µM
In short: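 Firefly luciferase readout (Dual-Glo, 10 min RT) after 24 h, 37 °C compound exposure (final up to 57.5 uM) of HEK293 reporter cells cultured 24 h beforehand; PTC124 at 50 uM final as control inhibitor; activity scaled vehicle 0%, zero RLU -100%.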
Potency means the concentration at half of the fitted maximal effect; tags describe the fitted curve by direction and shape.

Potency, inactive:
Cc1ccc(-n2c(C)cc(/C=C(\C#N)C(=O)Nc3ccc(C)c(C)c3)c2C)cc1
CCOCCCNC(=O)c1ccc(-n2c(-c3ccccc3)cc3c2CCCC3)cc1
Cc1ccccc1Oc1nc2ccccn2c(=O)c1/C=C(\C#N)c1nc2ccccc2[nH]1
CCOc1ccc(NC(=O)CSc2cn(CCNC(=O)c3ccccc3F)c3ccccc23)cc1
CC(=O)c1cccc(NC(=O)CSc2nnc3ccc(-c4ccc(Br)cc4)nn23)c1
Cc1ccc(Nc2c(-c3c[nH]c4ccccc34)nc3ccccn23)cc1
Cc1ccc(NC(=O)Cn2c(=O)n(Cc3ccccc3)c(=O)c3sc4ccccc4c32)cc1

Potency, inconclusive:
Cc1cccc2nc(-c3ccccn3)c(Nc3ccccc3)n12 39.8 µM [inhibitor, single point]
CC(C)Cn1cc(NC(=O)N2CCN(c3cccc(C(F)(F)F)c3)CC2)c2ccccc2c1=O 20 µM [inhibitor, single point]
O=C1CSC2(C(=O)N(Cc3cccc(C(F)(F)F)c3)c3ccccc32)N1c1ccc(F)c(F)c1 (stereo unspecified) 28.2 µM [inhibitor, single point]
CCc1ccc(OCC(=O)N(Cc2ccc(C(C)C)cc2)C2CCS(=O)(=O)C2)cc1 (stereo unspecified) 35.5 µM [inhibitor, partial curve, poor fit]
O=C(Nc1ccccc1C(F)(F)F)c1ccc(F)c(S(=O)(=O)N2CCc3ccccc3C2)c1 39.8 µM [inhibitor, single point]
CCCC(O)c1nc2ccccc2n1CCCOc1ccc(Cl)cc1 (stereo unspecified) 39.8 µM [inhibitor, partial curve, poor fit]
CCc1cccc(NC(=O)C2CCCN(c3ncnc4onc(-c5ccc(F)cc5)c34)C2)c1 (stereo unspecified) 39.8 µM [inhibitor, single point]
Cc1ccc(NC(=O)c2c(C)cc(C)nc2SCC(=O)Nc2ccc(Br)cc2)cc1 20 µM [inhibitor, partial curve, poor fit]
CCc1nc2ccc(C(=O)NCCc3ccccc3OC)cc2nc1CC 39.8 µM [inhibitor, single point]
CCCCN1CC(c2nc3ccccc3n2CCCCOc2cc(C)ccc2C)CC1=O (stereo unspecified) 15.8 µM [inhibitor, single point]
CC1CCCN(C(=O)c2cc3ccc4cccnc4c3[nH]2)C1 (stereo unspecified) 25.1 µM [inhibitor, partial curve]
COc1cccc(-n2ccnc2SCC(=O)Nc2c(C)cc(C)cc2C)c1 39.8 µM [inhibitor, partial curve, poor fit]
Cc1ccc(-n2c(C)cc(C(=O)C(=O)Nc3ccccc3)c2C)c(C)c1 14.1 µM [inhibitor, partial curve, poor fit]
CC(C(=O)NCCSCc1cccc(Cl)c1)N(c1ccccc1)S(C)(=O)=O (stereo unspecified) 39.8 µM [inhibitor, single point]
Cc1c(C(=O)OCc2ccccc2)[nH]c2c1C(=O)CC(c1ccc(C(C)(C)C)cc1)C2 (stereo unspecified) 3.55 µM [inhibitor, full curve]
C[C@H](NC(=O)c1sccc1OCc1ccc(Cl)cc1)c1ccccc1 19.3 µM [inhibitor, partial curve]
CCc1cccc(NC(=O)c2cc3c(=O)n(Cc4ccccc4)ccc3nc2C)c1 35.5 µM [inhibitor, single point]
CC(C)c1ccc(NC(=O)C2CCN(C(=O)c3ccc(F)cc3)CC2)cc1 39.8 µM [inhibitor, single point]
COc1ccc(Cc2nc3ccc(C(=O)NCc4ccccc4C)cc3o2)cc1 20 µM [inhibitor, single point]
Cc1ccc2nc(-c3cccs3)c(Nc3c(C)cccc3C)n2c1 39.8 µM [inhibitor, partial curve, poor fit]
Cc1c(C(=O)NCc2ccc(F)cc2)oc2ccc(S(=O)(=O)N3CCCCC3)cc12 20 µM [inhibitor, partial curve, poor fit]
Fc1ccc(C(c2nnc(-c3ccccc3)o2)N2CCN(c3cccc(Cl)c3)CC2)cc1 (stereo unspecified) 22.4 µM [inhibitor, partial curve, poor fit]
CCS(=O)(=O)c1ncc(N(Cc2ccccc2)Cc2ccco2)c(C(=O)Nc2cccc(Cl)c2C)n1 31.6 µM [inhibitor, partial curve, poor fit]
COc1ccccc1C(=O)Nc1ccc2nc(SCC(=O)N(C)c3ccccc3)sc2c1 39.8 µM [inhibitor, single point]
O=C(CN1C(=O)C2(SCC(=O)N2c2cccc(Cl)c2)c2ccccc21)NCCc1ccccc1 (stereo unspecified) 39.8 µM [inhibitor, partial curve, poor fit]
CCOc1ccc(NC(=O)c2c(Nc3ccccc3C)sc(C(=O)c3ccccc3)c2N)cc1 39.8 µM [inhibitor, single point]
Cc1ccc(C)c(Cn2c3ccccc3c3cnn(CC(=O)NC(C)CCc4ccccc4)c(=O)c32)c1 (stereo unspecified) 28.2 µM [inhibitor, partial curve, poor fit]
COc1cccc(NC(=O)CN2C(=O)c3cccc4cccc2c34)c1 22.4 µM [inhibitor, partial curve, poor fit]
Cc1cn2c(-c3cn[nH]c3)cnc2c(Nc2ccc(C(=O)N3CCNCC3)cc2F)n1 19.3 µM [inhibitor, partial curve]
CCN(c1cccc(C)c1)S(=O)(=O)c1cc(Br)cc2c1N(C(C)=O)C(C)C2 (stereo unspecified) 39.8 µM [inhibitor, single point]
CCc1nc2ccc(C(=O)N3CCN(c4cc(Cl)ccc4C)CC3)cc2nc1CC 39.8 µM [inhibitor, single point]
Cc1cccc(-c2nc(CN3CCCC(C(=O)N4CCN(c5cc(Cl)ccc5C)CC4)C3)c(C)o2)c1 (stereo unspecified) 35.5 µM [inhibitor, single point]
CC(C)(C)OC(=O)N1CCC(c2c(C(=O)NCc3ccccc3)cnn2-c2cccc(F)c2)CC1 39.8 µM [inhibitor, partial curve, poor fit]
CCSc1nn(CC(=O)Nc2cccc(CC)c2)c(N)c1S(=O)(=O)c1ccccc1 28.2 µM [inhibitor, partial curve, poor fit]
Cc1oc(-c2ccc(Cl)cc2)nc1CN1CCCC(C(=O)NCCc2ccc(Cl)cc2)C1 (stereo unspecified) 20 µM [inhibitor, partial curve, poor fit]
Cc1ccc(S(=O)(=O)c2c(O)cc(C)c(NS(=O)(=O)c3ccc(Br)cc3)c2C)cc1 20 µM [inhibitor, partial curve]
O=C(CSc1nnc(-c2ccccc2Cl)o1)N1CCCc2ccccc21 14.1 µM [inhibitor, partial curve, poor fit]
CCOc1ccc(C(=O)c2cn(CC(=O)Nc3ccc(Cl)cc3)c3cc4c(cc3c2=O)OCO4)cc1 28.2 µM [inhibitor, single point]
Cc1ccc(CN2CCC(CNC(=O)c3cnn(-c4ccccc4Cl)c3C3CCN(C(=O)OC(C)(C)C)CC3)CC2)cc1 28.2 µM [inhibitor, single point]
CN(C(=O)c1ccc2c(c1)N(Cc1cccc(Cl)c1)C(=O)c1ccccc1S2(=O)=O)C1CCCCC1 22.4 µM [inhibitor, single point]
Cc1ccc(Cn2c(SCc3ccc(C(=O)NC4CCCCC4)cc3)nc3ccncc32)cc1 28.2 µM [inhibitor, partial curve, poor fit]
Cc1oc(-c2cccc(Cl)c2)nc1CN1CCC(C(=O)NCCCN2CCN(c3ccc(F)cc3)CC2)CC1 3.98 µM [inhibitor, full curve]
Cc1ccc(NC(=O)Nc2cc(C(F)(F)F)ccc2F)cc1Nc1ccc2c(c1)NC(=O)C2=Cc1ccc[nH]1 12.2 µM [inhibitor, partial curve]
CN1CC[C@H](c2c(O)cc(O)c3c(=O)cc(-c4ccccc4Cl)oc23)[C@H](O)C1 0.708 µM [inhibitor, full curve, poor fit]
CC(C)(C)c1ccc(OCCn2cc(C(=O)c3ccco3)c3ccccc32)cc1 39.8 µM [inhibitor, single point]
CCc1cccc(NC(=O)C2CCCN(S(=O)(=O)c3cccs3)C2)c1 (stereo unspecified) 39.8 µM [inhibitor, single point]
CCCCOc1ccc(CN2C(=O)C(=O)c3cc(Br)cc(C)c32)cc1OC 39.8 µM [inhibitor, single point]
Cc1ccc(CN2CCc3nc(N4CCN(c5ccccc5F)CC4)ncc3C2)cc1C 20 µM [inhibitor, partial curve, poor fit]
O=C(NCc1ccccc1Cl)C1CCCN(C(=O)c2cnn(-c3ccccc3)c2-n2cccc2)C1 (stereo unspecified) 35.5 µM [inhibitor, single point]
